Experimental data: US20190169308A1 (ALLIGATOR BIOSCIENCE, published 2019)
Numbering of substitutions follows the chain as printed.

B1: 1618LO11-1210LO1 (bispecific antibody, human IgG1, kappa)
heavy: EVQLLESGGGLVQPGGSLRLSCAASGFTFDYGSMYWVRQAPGKGLEWVSSISSGSGSTYYADSVKGRFTISRDNSKNTLYLQMNSLRAEDTAVYYCARSSYYGSYYSIDYWGQGTLVTVSS[no letters for human IgG1 constant region with changes]GGGGSGGGGSEVQLLESGGGLVQPGGSLRLSCAASGFDFESYAMSWVRQAPGKGLEWVSAISGSGGSTYYADSVKGRFTISRDNSKNTLYLQMNSLRAEDTAVYYCARYYGGYYSAWMDYWGQGTLVTVSSGGGGSGGGGSGGGGSDIQMTQSPSSLSASVGDRVTITCRASQSIRSALNWYQQKPGKAPKLLIYAASSLQSGVPSRFSGSGSGTDFTLTISSLQPEDFATYYCQQTYGYLHTFGQGTKLEIK
light: DIQMTQSPSSLSASVGDRVTITCRASQSISSYLNWYQQKPGKAPKLLIYAASSLHSGVPSRFSGSGSGTDFTLTISSLQPEDFATYYCQQYYDNLPTFGQGTKLEIKRTVAAPSVFIFPPSDEQLKSGTASVVCLLNNFYPREAKVQWKVDNALQSGNSQESVTEQDSKDSTYSLSSTLTLSKADYEKHKVYACEVTHQGLSSPVTKSFNRGEC
B2: 1210-1618.m2.m16 (bispecific antibody, human IgG1, kappa)
heavy: [no letters for about 100 residues]YYGGYYSAWMDYWGQGTLVTVSS[no letters for human IgG1 constant region with changes]GGGGSEVQLLESGGGLVQPGGSLRLSCAASGFTFSYGSMYWVRQAPGKGLEWVSSISSGSGSTYYADSVKGRFTISRDNSKNTLYLQMNSLRAEDTAVYYCARSSYYGSYYSIDYWGQGTLVTVSSGGGGSGGGGSGGGGSDIQMTQSPSSLSASVGDRVTITCRASQSISSYLNWYQQKPGKAPKLLIYAASSLQSGVPSRFSGSGSGTDFTLTISSLQPEDFATYYCQQYYDNLPTFGQGTKLEIK
light: B1 light with H55Q, Y91T, D93G, N94Y, P96H
B3: 1210-1618.m2.m7.m15 (bispecific antibody, human IgG1, kappa)
heavy: [no letters for about 100 residues]YYGGYYSAWMDYWGQGTLVTVSS[no letters for human IgG1 constant region with changes]THTCPPCPEPKSSDKDIQMTQSPSSLSASVGDRVTITCRASQSISSYLNWYQQKPGKAPKLLIYAASSLQSGVPSRFSGSGSGTDFTLTISSLQPEDFATYYCQQYYDNLPTFGQGTKLEIKGGGGSGGGGSGGGGSEVQLLESGGGLVQPGGSLRLSCAASGFTFSYGSMYWVRQAPGKGLEWVSSISSGSGSTYYADSVKGRFTISRDNSKNTLYLQMNSLRAEDTAVYYCARSSYYGSYYSIDYWGQGTLVTVSS
light: B1 light with H55Q, Y91T, D93G, N94Y, P96H
notes: scFv in VL-VH order
B4: 1210-1618.m2.m7.m17 (bispecific antibody, human IgG1, kappa)
heavy: [no letters for about 100 residues]YYGGYYSAWMDYWGQGTLVTVSS[no letters for human IgG1 constant region with changes]EAAKEAAKGGGGSDIQMTQSPSSLSASVGDRVTITCRASQSISSYLNWYQQKPGKAPKLLIYAASSLQSGVPSRFSGSGSGTDFTLTISSLQPEDFATYYCQQYYDNLPTFGQGTKLEIKGGGGSGGGGSGGGGSEVQLLESGGGLVQPGGSLRLSCAASGFTFSYGSMYWVRQAPGKGLEWVSSISSGSGSTYYADSVKGRFTISRDNSKNTLYLQMNSLRAEDTAVYYCARSSYYGSYYSIDYWGQGTLVTVSS
light: B1 light with H55Q, Y91T, D93G, N94Y, P96H
notes: scFv in VL-VH order
B5: 1210-1618.m2.m15 (bispecific antibody, human IgG1, kappa)
heavy: [no letters for about 100 residues]YYGGYYSAWMDYWGQGTLVTVSS[no letters for human IgG1 constant region with changes]THTCPPCPEPKSSDKEVQLLESGGGLVQPGGSLRLSCAASGFTFSYGSMYWVRQAPGKGLEWVSSISSGSGSTYYADSVKGRFTISRDNSKNTLYLQMNSLRAEDTAVYYCARSSYYGSYYSIDYWGQGTLVTVSSGGGGSGGGGSGGGGSDIQMTQSPSSLSASVGDRVTITCRASQSISSYLNWYQQKPGKAPKLLIYAASSLQSGVPSRFSGSGSGTDFTLTISSLQPEDFATYYCQQYYDNLPTFGQGTKLEIK
light: B1 light with H55Q, Y91T, D93G, N94Y, P96H
B6: 1618LO1-1210LO1 (bispecific antibody, human IgG1, kappa)
heavy: EVQLLESGGGLVQPGGSLRLSCAASGFTFDYGSMYWVRQAPGKGLEWVSSISSGSGSTYYADSVKGRFTISRDNSKNTLYLQMNSLRAEDTAVYYCARSSYYGSYYSIDYWGQGTLVTVSS[no letters for human IgG1 constant region with changes]GGGGSGGGGSEVQLLESGGGLVQPGGSLRLSCAASGFDFESYAMSWVRQAPGKGLEWVSAISGSGGSTYYADSVKGRFTISRDNSKNTLYLQMNSLRAEDTAVYYCARYYGGYYSAWMDYWGQGTLVTVSSGGGGSGGGGSGGGGSDIQMTQSPSSLSASVGDRVTITCRASQSIRSALNWYQQKPGKAPKLLIYAASSLQSGVPSRFSGSGSGTDFTLTISSLQPEDFATYYCQQTYGYLHTFGQGTKLEIK
light: B1 light with S31Q, A50G, H55Q
B7: 1618LO3-1210 (bispecific antibody, human IgG1, kappa)
heavy: EVQLLESGGGLVQPGGSLRLSCAASGFTFSYGSMYWVRQAPGKGLEWVSSISSGSGSTHYADSVKGRFTISRDNSKNTLYLQMNSLRAEDTAVYYCARSSYYGSYYSIDYWGQGTLVTVSS[no letters for human IgG1 constant region with changes]GGGGSGGGGS[no letters for about 100 residues]YYGGYYSAWMDYWGQGTLVTVSSGGGGSGGGGSGGGGSDIQMTQSPSSLSASVGDRVTITCRASQSISSYLNWYQQKPGKAPKLLIYAASSLQSGVPSRFSGSGSGTDFTLTISSLQPEDFATYYCQQTYGYLHTFGQGTKLEIK
light: B1 light with S30R, S31Q, A50G
B8: 1618LO1-1210LO2 (bispecific antibody, human IgG1, kappa)
heavy: EVQLLESGGGLVQPGGSLRLSCAASGFTFDYGSMYWVRQAPGKGLEWVSSISSGSGSTYYADSVKGRFTISRDNSKNTLYLQMNSLRAEDTAVYYCARSSYYGSYYSIDYWGQGTLVTVSS[no letters for human IgG1 constant region with changes]GGGGSGGGGSEVQLLESGGGLVQPGGSLRLSCAASGFDFDSYAMSWVRQAPGKGLEWVSAISGRGGSTYYADSVKGRFTISRDNSKNTLYLQMNSLRAEDTAVYYCARYYGGYYSAWMDYWGQGTLVTVSSGGGGSGGGGSGGGGSDIQMTQSPSSLSASVGDRVTITCRASQSIRSALNWYQQKPGKAPKLLIYAASSLQSGVPSRFSGSGSGTDFTLTISSLQPEDFATYYCQQTYGYLHTFGQGTKLEIK
light: B1 light with S31Q, A50G, H55Q

biological target: T1, CD137-bio (Ancell #502-030) (human, UniProt Q07011 24-186, biotinylated); assay: dual ELISA: coated 5T4-Fc, detection with CD137-bio
T1 construct: detection reagent of the dual ELISA
T1 sequence (Q07011 24-186 limits assumed): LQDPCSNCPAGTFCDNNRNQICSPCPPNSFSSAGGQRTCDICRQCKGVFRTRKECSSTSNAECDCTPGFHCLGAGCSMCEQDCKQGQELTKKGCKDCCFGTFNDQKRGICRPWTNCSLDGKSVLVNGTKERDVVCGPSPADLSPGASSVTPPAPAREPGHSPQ
Procedure: Bispecific binding to both targets, CD137 and 5T4, was evaluated using a standard ELISA protocol. Plates (#655074, Greiner Bio-One GmbH, Germany) were pre-coated with 0.5 μg/ml 5T4-Fc (obtained from Professor Peter Stern, University of Manchester) overnight. CD137-5T4 bsAb were diluted from 8 to 2×10⁻³ μg/ml in 1:4 dilutions and added in duplicates of 50 μl to each well. CD137-bio (Ancell #502-030) was used as detection antibody at 0.5 μg/ml and the binding was detected with Streptavidin-HRP (Pierce #21126). The ELISA was developed with SuperSignal ELISA PICO Chemiluminescent substrate (Thermo Scientific Pierce, Rockford, Ill. USA) during 2-10 minutes and read in an automated microplate based multi-detection reader (FLUOstar OPTIMA, Netherlands).

binding result	Binder
binds	B1
binds	B2
binds	B3
binds	B4
binds	B5
binds	B6
binds	B7
binds	B8
